Assay results from ChEMBL document CHEMBL4888484, “Replenishing the malaria drug discovery pipeline: Screening and hit evaluation of the MMV Hit Generation Library 1 (HGL1) against asexual blood stage Plasmodium falciparum ,using a nano luciferase reporter read-out” (2022).
Several values for one entry are separate records, joined by “and”; a condition that tells them apart may be missing. Identical values can stand only once. Hit rate of the full screen: of about 4,800 compounds, about 410 (8.5%) showed an effect of 50% or more. This is one part of the list.

Tested on: Plasmodium falciparum
Assay: Confirmatory screen in NF54 pLDH assay, in single point, at 2uM, 72h
Assay type: functional, Erythrocyte
Conditions: timepoint 72 hour

O=C(C[C@H]1CCOC1)Nc1cccc(F)c1
% Inhibition: -4%

CS(=O)(=O)CCOc1cccc(NCc2cocn2)c1
% Inhibition: 3%

CCCNCc1cc(Br)ccc1OCC(N)=O
% Inhibition: -11%

Cc1ccc(NC(=O)C2CC2c2ccccc2)cc1NC(=O)C1CC1c1ccccc1 (stereo not given)
% Inhibition: 15%

CS(=O)(=O)n1cnc2cc(F)c(F)cc21
% Inhibition: -8%

CC(=O)Nc1ccc(NC(=O)CN2CCCN(c3cncc(F)c3)CC2)cc1
% Inhibition: 0%

Clc1ccc(C[n+]2ccc(-c3nc4ccccc4o3)cc2)c(Cl)c1
% Inhibition: 48%

COc1ccc(C(=O)N2CCCn3cc(-c4ccccc4F)nc32)cn1
% Inhibition: 2%

CNC(=O)c1cc(N2CCN(c3ncc(C(F)(F)F)cc3Cl)CC2)ccc1NC(=O)c1ccccc1Cl
% Inhibition: 13%

CC(C)CC[C@@H](CCNCCN(C)C)c1ccc(Cl)cc1
% Inhibition: 103%

CC(C)NC[C@H]1COCc2nc3ccccc3n21
% Inhibition: -15%

COc1ccc(S(=O)(=O)N[C@H]2CCCc3cn(CC(F)(F)F)nc32)cc1
% Inhibition: 14%

O=C(Nc1ccc(-c2nc3cnccc3o2)c(Cl)c1)c1sc2ccccc2c1Cl
% Inhibition: 5%

CCC1(C)NC(=O)N(CC(O)CN2C(=O)c3ccccc3C2=O)C1=O (stereo not given)
% Inhibition: -5%

CCn1cc(Br)c(=O)c(NC(=O)[C@H]2CCCOC2)c1
% Inhibition: -7%

CCN(CC)c1ccc(C(=O)C(F)(F)F)c(O)c1
% Inhibition: 0%

C=CCOCC(O)CN(Cc1c(-c2ccccc2)noc1N1CCCCC1C)CC1CCCO1 (stereo not given)
% Inhibition: 10%

CCOc1ccc2c(n1)CCN(C(=O)c1ccsc1)C2
% Inhibition: -12%

Cc1nc(CN(C)C(=O)c2ccccc2Nc2cccc(C)c2C)cs1
% Inhibition: 10%

CCN1C(=O)Cc2cc(NC(=O)c3ccc(Br)o3)ccc21
% Inhibition: 12%

Cc1cc(Nc2ccc(CN3CCCC3=O)cc2)nc(C2CC2)n1
% Inhibition: -2%

Cc1cc(C)cc(-n2cc(C(=O)NCCCc3ccccc3)nn2)c1
% Inhibition: 8%

CCc1cccc2c(C3=CCN(C(=O)NC[C@H]4COCCO4)CC3)c[nH]c12
% Inhibition: 8%

O=C(NCc1ccccc1OC1CCC1)N(CCO)C1CC1
% Inhibition: 9%

CC(C)OC1CC(Nc2cccc(CO)c2)C1 (stereo not given)
% Inhibition: -6%

COc1ccc(OC)c(NC(=O)CN2CCc3[nH]c4ccc(F)cc4c(=O)c3C2)c1
% Inhibition: 83%

CN(C)c1nc(CN2CCC(CO)CC2)ns1
% Inhibition: 6%

CC(C)(C)c1ccc(NC(=O)c2ccnnc2)c(O)c1
% Inhibition: -10%

Cc1occc1C(=O)NCCCn1ncc2c(C)cccc21
% Inhibition: 1%

C[C@@H](c1cc(Cl)ccc1Cl)n1nccc1NC(=O)c1ccoc1
% Inhibition: -6%

Cc1c2c(C(F)(F)F)cc(=O)n(CCC(=O)Nc3ccc4c(c3)OCCO4)c2nn1C
% Inhibition: 8%

Cc1c(S(=O)(=O)N2CCC(C)(C(=O)NCc3ccc(F)cc3)CC2)cnn1C(F)F
% Inhibition: 8%

COc1ccsc1CNc1ccc2[nH]ncc2c1
% Inhibition: 10%

Cc1ccccc1Nc1c(-c2c[nH]c3ccccc23)nc2ncccn12
% Inhibition: -4%

CC1CN(CCCNC(=O)Cc2c[nH]c3ccc(F)cc23)CC(C)O1 (stereo not given)
% Inhibition: -4%

CCc1c([C@H](C)S(=O)(=O)c2ccccc2)[nH]c(=O)n1C(C)(C)C
% Inhibition: -14%

O=C(c1nccnc1-c1nc2ccccc2s1)N1CCc2sccc2C1
% Inhibition: -12%

CCOCc1nc(-c2ccc(=O)n(C)c2)no1
% Inhibition: 8%

Cc1ccc(CNC(=O)[C@@H](C)C2CCOCC2)cc1C
% Inhibition: 7%

CN([C@H]1CCc2nn(CC3CC3)c(=O)n2CC1)S(=O)(=O)c1ccccc1C(F)(F)F
% Inhibition: 1%

CN(CC(F)(F)F)C(=O)CNC(=O)c1cc(F)cc(Cl)c1O
% Inhibition: -2%

Cc1cccc(NC(=O)c2c(C)sc3ncnc(N4CCCCC4)c23)c1C
% Inhibition: 11%

CS(=O)(=O)N(CCCC(=O)N1CC(=O)Nc2ccccc21)c1cc(Cl)ccc1Cl
% Inhibition: 10%

COc1ccc2[nH]c3c(c2c1)CC(C(=O)O)NC3c1ccc(OC)c(CN2CCN(c3ccccc3F)CC2)c1 (stereo not given)
% Inhibition: 72%

COc1cc(Cl)c(C)cc1NC(=O)c1cc(=O)n(-c2ccc(C)cc2)[nH]1
% Inhibition: -14%

COc1cc(C=C(C(=O)Nc2ccccc2F)C(=O)Nc2ccccc2F)ccc1OCC(=O)Nc1cccc(C(F)(F)F)c1
% Inhibition: -18%

C=CCC(N)(CC=C)c1ccc(C)cc1
% Inhibition: 4%

Cc1noc2c1N=C(c1ccc(F)cc1)C[C@@H](c1ccc(F)cc1)C2
% Inhibition: 1%

COCc1cc(F)ccc1NC(=O)NC1CCN(c2cc(C)nc(C)n2)CC1
% Inhibition: 5%

Cn1ncnc1CNc1cccc(Cl)c1Br
% Inhibition: 10%

CCOC(=O)c1cnc(N2CCCC2)nc1C1CCN(C(=O)OC(C)(C)C)CC1
% Inhibition: -9%

Cc1ccn2c(CN3CCN([C@H]4CCN(Cc5ccccc5)C4)CC3)c(C)nc2c1
% Inhibition: 9%

O=C(Nc1ccccc1)N1CCC[C@H]1c1ccncc1
% Inhibition: -4%

O=C(Nc1ccccc1N1CCOCC1)[C@@H]1CC=CCC1
% Inhibition: -10%

CS(=O)(=O)N1CC[C@H](CC(=O)N2CCN(c3ccc(F)cc3)CC2)C1
% Inhibition: -21%

COc1ccc(C(C)(C)C(=O)N(C)Cc2cn(C)nc2C(C)C)cc1
% Inhibition: 13%

COc1cccc(-c2nc(C)c(C(=O)Nc3n[nH]c(CC(C)C)n3)s2)c1
% Inhibition (2 µM): -15% and 3%

O=C(NC1=NN2C(=NC(c3ccc(Cl)cc3)=C[C@H]2c2ccc(F)cc2)N1)c1ccc(Cl)cc1
% Inhibition: 13%

Cc1cc(Cn2cc(C(c3ccccc3)c3ccccc3)nn2)no1
% Inhibition: 7%

N#Cc1ccc2c(c1)N(Cc1ccccc1F)C(=O)[C@@H]1CCCN21
% Inhibition: 7%

Cc1cc(NCc2noc(-c3ccsc3)n2)ccc1C(N)=O
% Inhibition: 5%

COc1ccc2ncc(=O)n(CCOc3ccccc3)c2c1
% Inhibition: 9%

CCN(CC)CCCNC(=O)c1ccc(-c2nc(CS(=O)(=O)c3ccccc3)c(C)o2)cc1
% Inhibition: -11%

c1cc(Cn2cnc3c2CCCC3)cs1
% Inhibition: -6%

CCOc1cccc(COC(=O)c2cc(C#N)cn2C)n1
% Inhibition: 1%

Nc1nc(N2CCN(c3ccc(F)c(Cl)c3)CC2)cc([C@H]2C[C@@H](N)C2)n1
% Inhibition: 34%

CC1(C)Cc2nc3ccccc3c(NCc3ccccc3)c2[C@@H](O)C1
% Inhibition: 54%

CCC1(CC)CN(C(=O)c2ccn(C)c(=O)c2)c2ccccc21
% Inhibition: 13%

Cc1ccc([C@H](c2c[nH]c3ccccc23)N(C)C(=O)C(C)C)cc1
% Inhibition: 0%

CNc1nc(Nc2ccc3c(c2)OCCO3)nc2ccccc12
% Inhibition: 103%

COCCCNC(=O)C1CCN(c2c(C)n(-c3ccccc3)c(=O)n(CC(C)C)c2=O)CC1
% Inhibition: 5%

Cc1cccnc1NC(=O)OC(C)(C)C
% Inhibition: 10%

CC(Oc1ccccc1)C(=O)N1CCNC(=O)C1c1ccc(Br)cc1 (stereo not given)
% Inhibition: -3%

C1CCC(Nc2nc3nonc3nc2N2CCCCC2)CC1
% Inhibition: 15%

COc1cccc(-n2c(C)cc(C(=O)N3CCNC(=O)CC3)c2C)c1
% Inhibition: -5%

O=C1[C@@H]2C[C@@H](CN2C(=O)c2cncnc2)Oc2ccccc2N1Cc1cccnc1
% Inhibition: 6%

CC1CCCC(C)C12NC(=O)N(CN1CCN(CCOc3ccccc3Cl)CC1)C2=O (stereo not given)
% Inhibition: 5%

CCOC(=O)[C@@H](OC(=O)Nc1cccc(C(F)(F)F)c1)C(F)(F)F
% Inhibition: 3%

O[C@@]1(CN2CCC(COc3ccc4c(c3)CCC4)CC2)CCCNC1
% Inhibition: 45%

Cn1ncc(Cl)c1C(=O)N(C1CCCCC1)C1CCCCC1
% Inhibition: 10%

Cc1nn(C[C@H](C)/C(N)=N/O)cc1Cl
% Inhibition: 7%

O=C(NCCc1cccs1)c1nn[nH]c1Nc1ccccc1F
% Inhibition: 4%

CCCCC(C)C(=O)N1CCC2CN(C(=O)C(F)(F)F)CC2C1 (stereo not given)
% Inhibition: 8%

c1ccc(-c2nccc(-c3ccc(-n4cncn4)cc3)n2)nc1
% Inhibition: 18%

Cc1nn(-c2nc3ccccc3[nH]2)c(O)c1Cc1ccccc1
% Inhibition: 17%

O=C(CCc1ccccc1)Nc1ccc(-n2nn[nH]c2=O)cc1
% Inhibition: 15%

CN(Cc1cnn(-c2ccccc2)n1)c1ncnc2[nH]ncc12
% Inhibition: 10%

CCOC(=O)Nc1nc(C)c(-c2nc3ccccc3c(=O)n2-c2ccc(OC)cc2)s1
% Inhibition: 9%

Clc1cc(CNCCc2ccccc2)ccc1OCc1ccccc1
% Inhibition: 3%

C[C@H](Nc1nc(N2CCCCC2)nc2ccccc12)c1ccccc1
% Inhibition: -6%

CCC(CC)c1ccc([C@H]2N(C(=O)c3ccc(C)cc3)CCN2S(=O)(=O)c2ccccc2)cc1
% Inhibition: -2%

CC(C)(C)OC(=O)Cn1cc(CO)nn1
% Inhibition: 10%

CN(C)CCCNc1nc(N2CCCC2)c2c(c1C#N)CCN(C)C2
% Inhibition: 14%

COc1cc2c(cc1Cl)-n1cccc1C1(CCNCC1)N2
% Inhibition: -15%

CCCOc1ccc(Cl)c(CN2OCC(C)(C)C2=O)c1
% Inhibition: -16%

C[C@H]1CCCN(C(=O)CNC(=O)Cc2ccccc2)CC1
% Inhibition: -10%

COc1cccc(-c2noc3nc(C)cc(C(=O)NCCCn4ccc(C)n4)c23)c1
% Inhibition: 11%

c1coc([C@H](CNC2CCCC2)N2CCCC2)c1
% Inhibition: -12%

CCOC(=O)[C@@H]1C(=O)Nc2cc(OC)ccc21
% Inhibition: 9%

C[C@@H](CO)NC(=O)Nc1cc(Br)c(F)cc1Cl
% Inhibition: 13%

O=C1NC(=O)[C@@H]2CN(C(=O)[C@@H]3CCO[C@H]3c3ccc(Cl)c(F)c3)C[C@H]12
% Inhibition: 9%

CC(C)NC(=O)CN(C)S(=O)(=O)c1ccc(Br)cc1
% Inhibition: -12%

Cc1cc(-c2ccccc2)c(C#N)c(=O)n1C(=O)c1ccc(C#N)cc1
% Inhibition: 11%

CN(CC(=O)Nc1ncccn1)S(=O)(=O)c1ccc2c(c1)OCCCO2
% Inhibition: -13%

O=C(O)Cc1cccc(NC(=O)C2C3Cc4ccccc4C32)c1 (stereo not given)
% Inhibition: 2%
